Assay results: PubChem BioAssay AID651820 (National Center for Advancing Translational Sciences (NCATS), 2012)
The whole screen tested about 340,000 compounds, of which about 12,000 (3.5%) were called active. Inconclusive results, whose numbers are uncertain, are shown with a selection of clear calls. Calls come from the whole dose curve; as a rule, active = well fitted inhibition curve with a large enough effect; inconclusive = small, poorly fitted or top-dose-only effect, or another doubt; inactive = no such curve, though single readings can be large or run the other way. No potency is given beside an inconclusive call; the fits are too rough.

Assay: qHTS Assay for Inhibitors of Hepatitis C Virus (HCV)
Conditions: Huh7.5.1 HCVcc-Cre (HCVcc is cell-culture hepatitis C virus) infection, luciferase reporter, 44 h; activity change, negative = inhibition: at 41.8 µM (top of the series) unless noted
Procedure, shortened: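 After 44 h co-culture of compound, cells and HCVcc-Cre (~0.5 moi), substrate is added for 15 min at room temperature and luciferase measured over 15 sec. Cells were seeded at 1,000/well and pre-cultured 4 h.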
% is set by controls: 0 for no effect and ±100 for the full control effect; potency is the fitted concentration of half-maximal effect; tags give direction and shape of the fitted curve.

SMILES	Potency	activity change, negative = inhibition
CCN(CC)CCn1c2c(c(SCC(=O)Nc3ccc(C(C)C)cc3)nc1=O)CCC2	inconclusive [inhibitor, single point]	
COc1ccc(/C=C2\N=C3CCCCCN3C2=O)cc1OC	inactive	
Cn1c2ccccc2c2c(C(=O)NCC3CCCO3)cn(C3CCCC3)c(=O)c21 (stereo unspecified)	inconclusive [inhibitor, single point]	
O=C(CC1(CC2=NS(=O)(=O)c3ccccc3N2)CCCC1)NCCc1ccccc1	inconclusive [inhibitor, partial curve]	
CCOC(=O)CSCc1cn2cc(Cl)ccc2n1	inactive	
Cc1ccc(NS(=O)(=O)c2ccc(N3C(=O)CCC3=O)cc2)cc1	inactive	
COC(=O)Cn1c(-c2ccc(OC)cc2)c(-c2ccc(OC)cc2)nnc1=O	inactive	
COC(=O)c1c(-c2ccccc2)noc1-c1ccccc1	inconclusive [inhibitor, partial curve]	
O=C(/C=C/c1ccc(OC(F)F)cc1)OCC(=O)N1CCN(C(=O)c2ccco2)CC1	inconclusive [inhibitor, single point]	
CC(C)CCNC(=O)CN(C(=O)Cn1nnc(-c2ccc(F)cc2)n1)C1CCCC1	inconclusive [inhibitor, single point]	
O=C(CN(Cc1ccccc1)C(=O)CCC(=O)Nc1nccs1)NCc1ccc(F)cc1	inactive	
CC(NC(=O)COC(=O)c1cc([N+](=O)[O-])ccc1N1CCOCC1)c1ccccc1 (stereo unspecified)	inconclusive [inhibitor, single point]	
CCN1CCN(CC(=O)Nc2cc(S(=O)(=O)N(CC)c3ccccc3)ccc2Cl)CC1	inconclusive [inhibitor, single point]	
Cc1ccc(-c2c(C(=O)N/N=C/c3ccc(C)o3)nnn2-c2nonc2N)cc1	inactive	
CC1(CCBr)C(=O)N(c2ccccc2)c2ccccc21 (stereo unspecified)	inactive	
CCOc1cc(/C=N/O)ccc1OCc1ccc(F)cc1	active: 7.08 µM	
O=S(=O)(c1cccc2nsnc12)N1CCN(Cc2ccccc2)CC1	inactive	
O=C(O)COc1c(-c2ccc(Cl)cc2)oc2ccccc2c1=O	inactive	
CN1C2C=C(N(CCc3c[nH]c4ccccc34)C(=O)c3ccc(Cl)cc3)CC1CC2 (stereo unspecified)	inconclusive [inhibitor, single point]	
COc1ccc(C)cc1NC(=O)C(OC(=O)c1cnc(C)cn1)c1ccccc1 (stereo unspecified)	inconclusive [inhibitor, partial curve]	
Cc1sc(NC(=O)c2ccco2)c(CN2CCN(c3ccccn3)CC2)c1C	inconclusive [inhibitor, single point]	
Cc1cnc(NC(=O)Cc2ccccc2Cl)s1	inconclusive [inhibitor, single point]	
C[C@]12CCCCC1=CC(=O)C1C2CC[C@@]2(C)C1C[C@@H](F)[C@@H]2O (stereo partly specified)		inconclusive: -59.9% [inhibitor]
Cc1cc2oc(C(=O)N(Cc3ccc(N(C)C)cc3)CC3CCCO3)c(C)c2cc1C (stereo unspecified)	inconclusive [inhibitor, single point]	

SMILES	Potency	activity change, negative = inhibition
COc1ccc(-c2cnnn2-c2ccc(NC(=O)c3ccc(S(=O)(=O)N4CCCCC4)cc3)cc2)cc1OC	inconclusive [inhibitor, single point]	
CCOc1ccc(NC(=O)CN2CCN(CC(=O)c3ccc(OC)c(OC)c3)CC2)cc1	inactive	
CCCCCCCn1c(=N)n(CC(=O)c2ccco2)c2ccccc21	inconclusive [inhibitor, single point]	
CC(=O)NCc1nnc2c3ccccc3c(-c3ccccc3)nn12	inactive	
O=C(CCCC(=O)N1CCN(c2cccc(Cl)c2)CC1)c1ccccc1	inconclusive [inhibitor, single point]	
Cc1cc(C)c2oc(=O)cc(CN3CCN(Cc4ccccc4)CC3)c2c1	inactive	
Cc1ccc(NC(=O)Cc2nc(CSc3nnc(-c4ccc5c(c4)OCO5)o3)cs2)cc1	inconclusive [inhibitor, single point]	
CCN(CC)CCNc1nc(-n2nc(C)cc2C)nc2sc3c(c12)CC(C)(C)OC3	active: 11.2 µM	
COc1ccc(CCNC(=O)Cn2c(=O)n(-c3ccc(C)c(F)c3)c(=O)c3sccc32)cc1OC	inconclusive [inhibitor, single point]	
Cc1nc2cc(NC(=O)c3ccc(Cl)cc3)ccc2n1C	inconclusive [inhibitor, single point]	
Cc1c(Cl)cccc1NC(=O)CCC(=O)N/N=C/c1ccc[nH]1	active: 1 µM	
COc1cc(C(=O)OCC(=O)Nc2cc(S(=O)(=O)N3CCOCC3)ccc2C)ccc1OCC(C)C	inconclusive [inhibitor, partial curve]	
CS(=O)(=O)N1N=C(c2ccco2)CC1c1ccc(Cl)cc1 (stereo unspecified)	inactive	
COc1cc(C2C3=C(COC3=O)Oc3cc4c(cc32)OCO4)cc(OC)c1OC (stereo unspecified)	inconclusive [inhibitor, full curve, poor fit]	
COc1ccc(CCC(=O)N2CCCSC2=Nc2ccc(C(C)=O)cc2)cc1	inactive	
CCN(c1ccccc1)S(=O)(=O)c1ccc(Oc2ccc([N+](=O)[O-])cc2)nc1	inconclusive [inhibitor, single point]	
CC1CCCCC1NC(=O)COC(=O)c1ccc2c(c1)NC(=O)CS2 (stereo unspecified)	inconclusive [inhibitor, single point]	
O=C(COC(=O)c1cccc(S(=O)(=O)N2CCc3ccccc32)c1)NCc1ccco1	inactive	
C#Cc1ccc([C@H]2C=C(C(=O)N3CCN(Cc4ccc5c(c4)OCO5)CC3)O[C@@H](OCC)[C@@H]2CCCO)cc1	inconclusive [inhibitor, partial curve]	
Cc1csc(CN(C)C(=O)C2CCC(=O)N(CCCc3ccccc3)C2)n1 (stereo unspecified)	inactive	
CCOc1ccc(C(C)=O)cc1COC(=O)CNC(=O)c1cccs1	inconclusive [inhibitor, single point]	
CCc1nc(-c2ccc(OC)c(OC)c2)cc2cc(OC)c(OC)cc12	active: 3.16 µM	
CCOC(=O)N1CCN(C(=O)c2ccc3nc(SCc4ccc(F)cc4)n(C)c3c2)CC1	inconclusive [inhibitor, single point]	
OC(COc1ccccc1)CN1CCOCC1 (stereo unspecified)	inconclusive [inhibitor, single point]	

SMILES	Potency	activity change, negative = inhibition
O=C(CN1CCOCC1)Nc1ccccc1Sc1ccccc1	inactive	
CCCCOC(=O)Nc1nc2ccc([N+](=O)[O-])cc2s1	inactive	
CC(=NNc1ccc([N+](=O)[O-])cn1)c1ccc(N)cc1	inactive	
O=C(Cc1ccc(F)cc1)Nc1cccc(-c2cn3c(n2)SCC3)c1	inconclusive [inhibitor, single point]	
Cc1cc(C)cc(NC(=O)c2ccccc2CC[N+](=O)[O-])c1	inconclusive [inhibitor, single point]	
CCN(CC)CCOC(=O)c1ccc(N)cc1	inactive	
COC(=O)c1c(NC(=O)c2ccco2)sc2c1CCN(C(C)=O)C2	inconclusive [inhibitor, full curve]	
CC1=C(C(=O)Nc2cccc(C(=O)N3CCN(c4cccc(C(F)(F)F)c4)CC3)c2)SCCO1	inconclusive [inhibitor, single point]	
CCCC(=O)Nc1sc2c(c1C(=O)OC)C(C(=O)OC)CC2 (stereo unspecified)	inconclusive [inhibitor, partial curve, poor fit]	
CCOc1ccc(C2NC(=S)NC3=C2CCc2ccccc23)cc1 (stereo unspecified)	inconclusive [inhibitor, single point]	
COc1cccc(NC(=O)COc2ccc(C)cc2)c1	inactive	
COc1cc(NC(=O)CSc2ccc3c(c2)OCCO3)cc(OC)c1OC	inconclusive [inhibitor, single point]	
Cc1cc(NC(=O)C(=O)c2cn(C)c3ccccc23)no1	inconclusive [inhibitor, partial curve]	
CC(Oc1cc(Cl)ccc1Cl)C(=O)N/N=C\c1ccnn1C (stereo unspecified)	inconclusive [inhibitor, partial curve, poor fit]	
CC1CN(C(=O)c2cc(-c3ccc(Cl)s3)nc3ccccc23)CC(C)O1 (stereo unspecified)	inconclusive [inhibitor, partial curve]	
CC(C)(C)SCCNC(=O)CN(c1ccc(F)cc1)S(C)(=O)=O	inactive	
O=C(NCCCN1CCCC1)c1ccc(CS(=O)(=O)c2ccc(Cl)cc2)o1	inconclusive [inhibitor, single point]	
Cc1nn(CCCC(=O)NCCc2ccc(Cl)cc2)c(=O)c2nn(-c3ccccc3)c(C)c12	inconclusive [inhibitor, partial curve]	
COc1ccc(NC(=O)c2ccc(CN3CCc4ccccc4C3)cc2)cc1OC	active: 12.6 µM	
O=C(N/N=C\c1c(O)ccc2ccccc12)c1ccc(O)cc1	inconclusive [inhibitor, partial curve]	
Cc1ccc2nc(CSc3nnc(Nc4ccccc4F)s3)cc(=O)n2c1	inconclusive [inhibitor, single point]	
C/C(CC(=O)Nc1ccc(OCc2ccccc2)cc1)=N\NC(=O)C(=O)Nc1cccc(C)c1	inconclusive [inhibitor, partial curve]	
CCn1ncc(/C=N\NC(=O)Cc2ccc([N+](=O)[O-])cc2)c1C	inactive	
